Experimental data as given in the antibiotic and cytotoxicity screens of Wong et al. (2023).
Some of the results follow.

Tests used:
[1] = tested on: HSkMC (human skeletal muscle cells); experiment: cytotoxicity call (relative viability < 0.9); details: 10 µM
[2] = tested on: HepG2; experiment: cytotoxicity call (relative viability < 0.9); details: 10 µM
[3] = tested on: S. aureus RN4220; experiment: growth inhibition call (relative growth <= 0.2); details: 50 µM

Structure (SMILES)	cytotoxicity call [1]	cytotoxicity call [2]	growth inhibition call [3]
C[C@@H]1CN([C@H](C)CO)S(=O)(=O)c2ccc(C#Cc3cccnc3)cc2O[C@H]1CN(C)CC1CCCC1	inactive	inactive	inactive
C[C@H]1CCCCO[C@H](CN(C)Cc2ccc(C(F)(F)F)cc2)[C@@H](C)CN([C@@H](C)CO)C(=O)c2cc(NC(=O)Nc3ccc(C(F)(F)F)cc3)ccc2O1	inactive	active	inactive
COc1ccc(NC(=O)Nc2ccc3c(c2)C(=O)N([C@@H](C)CO)C[C@@H](C)[C@@H](CN(C)CC2CCCCC2)OCCCC[C@@H](C)O3)cc1	inactive	active	inactive
C[C@@H]1CN([C@@H](C)CO)C(=O)Cc2cc(NS(C)(=O)=O)ccc2O[C@H]1CN(C)S(=O)(=O)c1ccc(F)cc1	inactive	inactive	inactive
C[C@@H]1CCCCO[C@@H](CN(C)C(=O)Nc2ccc(F)cc2)[C@H](C)CN([C@H](C)CO)C(=O)c2cc(NC(=O)CCCN(C)C)ccc2O1	inactive	inactive	inactive
COc1ccc(S(=O)(=O)N(C)C[C@@H]2OCCCC[C@@H](C)Oc3ccc(NC(=O)Nc4ccc(C(F)(F)F)cc4)cc3C(=O)N([C@H](C)CO)C[C@@H]2C)cc1	inactive	inactive	inactive
CC(C)N1CC=C[C@@]23O[C@@H]4C=CCCOC(=O)[C@@H]4[C@H]2C(=O)N(CCCO)[C@@H]3C1=O	inactive	inactive	inactive
COc1ccc(CN(C)C[C@@H]2Oc3ccc(NC(=O)Nc4cccc5ccccc45)cc3CC(=O)N([C@H](C)CO)C[C@H]2C)cc1	inactive	inactive	inactive
C[C@H](CO)N1C[C@H](C)[C@H](CN(C)C(=O)NC2CCCCC2)Oc2cc(-c3cccnc3)ccc2S1(=O)=O	inactive	inactive	inactive
CO[C@@H]1CN(C)C(=O)c2cc(NS(C)(=O)=O)ccc2OC[C@H](C)N(C(=O)C2CCOCC2)C[C@H]1C	inactive	inactive	inactive
C=CC[C@@H](CC(=O)N[C@H](CO)Cc1ccccc1)C(=O)NCCOC(=O)[C@@H](CC=C)CC(=O)OC(C)(C)C	inactive	inactive	inactive
COc1ccc2c3c([nH]c2c1)[C@@H](CO)N(C[C@]13CCN(CC1)CC1CCCCC1)C(=O)Nc1cccc(c1)F	active	active	active
C[C@@H]1CN([C@H](C)CO)C(=O)Cc2cc(NC(=O)CCCN(C)C)ccc2O[C@H]1CN(C)Cc1ccc(Oc2ccccc2)cc1	inactive	active	inactive
C[C@@H]1CN([C@H](C)CO)C(=O)c2cc(NS(=O)(=O)c3ccc(Cl)cc3)ccc2O[C@@H](C)CCCCO[C@H]1CN(C)C(=O)Nc1ccccc1	inactive	inactive	inactive
COc1ccccc1CNC(=O)C[C@@H]1C[C@@H]2c3cc(NC(=O)NC4CCCC4)ccc3O[C@@H]2[C@H](CO)O1	inactive	inactive	inactive
CNC[C@H]1Oc2ccc(NC(=O)Cn3cnnn3)cc2C(=O)N([C@@H](C)CO)C[C@@H]1C	inactive	inactive	inactive
C[C@@H]1CN([C@@H](C)CO)C(=O)c2cc(C#CCN(C)C)cnc2O[C@H]1CN(C)Cc1ccc2c(c1)OCO2	inactive	inactive	inactive
C[C@@H]1CN([C@@H](C)CO)C(=O)c2cc(NC(=O)c3ccncc3)ccc2O[C@@H]1CN(C)Cc1ccc(C(=O)O)cc1	inactive	inactive	inactive
NC(Cn1ccc(=O)c(O)c1)C(=O)O (stereo not given)	inactive	active	inactive
C[C@@H]1CN([C@H](C)CO)C(=O)c2cc(NC(=O)CCC(F)(F)F)ccc2O[C@@H](C)CCCCO[C@@H]1CN(C)C(=O)c1ccccc1	inactive	inactive	inactive
C[C@H](CO)N1C[C@H](C)[C@@H](CN(C)Cc2ccncc2)Oc2c(NS(=O)(=O)c3ccc(F)cc3)cccc2C1=O	inactive	inactive	inactive
COc1ccc(S(=O)(=O)Nc2ccc3c(c2)C(=O)N([C@@H](C)CO)C[C@H](C)[C@H](CN(C)Cc2ccc4c(c2)OCO4)OCCCC[C@H](C)O3)cc1	inactive	inactive	inactive
C[C@H]1CN([C@@H](C)CO)C(=O)c2cc(NS(=O)(=O)c3ccc(F)cc3)ccc2O[C@@H]1CN(C)S(C)(=O)=O	inactive	inactive	inactive
C[C@@H]1CCCCO[C@@H](CN(C)Cc2ccc(Cl)c(Cl)c2)[C@@H](C)CN([C@@H](C)CO)C(=O)c2cc(NS(=O)(=O)c3ccc(Cl)cc3)ccc2O1	active	active	inactive
Cc1ccc(S(=O)(=O)NCC[C@@H]2CC[C@@H](NS(=O)(=O)c3ccccc3Cl)[C@H](CO)O2)cc1	inactive	inactive	inactive
C[C@@H]1CN([C@@H](C)CO)C(=O)c2cc(NS(=O)(=O)c3cccs3)ccc2O[C@H]1CN(C)S(C)(=O)=O	inactive	inactive	inactive
Cc1noc(C)c1NC(=O)Nc1ccc2c(c1)C(=O)N([C@H](C)CO)C[C@H](C)[C@@H](CN(C)Cc1ccc(-c3ccccc3)cc1)O2	inactive	inactive	inactive
C=CC(=O)Nc1ccc([C@@H](CCc2ccc(OC)c(OC)c2)OC(=O)[C@@H]2CCCCN2C(=O)C(=O)C(C)(C)CC)cc1	inactive	inactive	inactive

Structure (SMILES)	cytotoxicity call [1]	cytotoxicity call [2]	growth inhibition call [3]
C[C@@H]1CN([C@@H](C)CO)C(=O)c2cc(NC(=O)Nc3cccc4ccccc34)ccc2O[C@@H]1CN(C)C(=O)Nc1ccccc1	inactive	inactive	inactive
Nc1cnc2ccc(Cl)nn12	inactive	inactive	inactive
Nc1ccc(C(F)(F)F)cc1Cl	inactive	inactive	inactive
CCCOc1ccccc1-c1nc2[nH]nnc2c(=O)[nH]1	inactive	inactive	inactive
C[C@@H]1CCCCO[C@@H](CN(C)S(=O)(=O)c2ccc(Cl)cc2)[C@@H](C)CN([C@@H](C)CO)C(=O)c2cc(NC(=O)c3ccccc3)ccc2O1	inactive	inactive	inactive
COc1ccc(NC(=O)Nc2ccc3c(c2)C(=O)N([C@@H](C)CO)C[C@@H](C)[C@H](CN(C)C(=O)NC(C)C)OCCCC[C@@H](C)O3)cc1	inactive	inactive	inactive
C[C@H](CO)N1C[C@H](C)[C@@H](CN(C)Cc2ccc(F)cc2)Oc2cc(C#CC3CC3)ccc2S1(=O)=O	inactive	inactive	inactive
C[C@H]1CN([C@@H](C)CO)C(=O)c2cc(Br)cnc2O[C@H]1CN(C)C(=O)Nc1ccc(F)cc1	inactive	inactive	inactive
C[C@H](CO)N1C[C@H](C)[C@@H](CN(C)Cc2ccc(Oc3ccccc3)cc2)Oc2ccc(NC(=O)C3CC3)cc2CC1=O	inactive	inactive	inactive
C[C@H](CO)N1C[C@H](C)[C@H](CN(C)Cc2ccc(-c3ccccc3)cc2)Oc2ccc(NC(=O)C3CCCCC3)cc2CC1=O	inactive	inactive	inactive
COc1ccc(C#Cc2ccc3c(c2)O[C@@H](CN(C)S(=O)(=O)c2ccccc2F)[C@H](C)CN([C@@H](C)CO)S3(=O)=O)cc1	inactive	inactive	inactive
C[C@H](CO)N1C[C@H](C)[C@@H](CN(C)C)OCCCC[C@H](C)Oc2ccc(NC(=O)Nc3cccc4ccccc34)cc2C1=O	inactive	inactive	inactive
Cc1ccc2c(c1)C(=O)CCS2	inactive	inactive	inactive
CC(C)NC(=O)Nc1ccc2c(c1)C(=O)N([C@H](C)CO)C[C@@H](C)[C@H](CN(C)C(=O)Nc1ccccc1)OCCCC[C@@H](C)O2	inactive	inactive	inactive
C[C@H](CO)N1C[C@H](C)[C@@H](CN(C)C(=O)Nc2ccc(C(F)(F)F)cc2)Oc2ccc(NC(=O)Cc3cn(C)c4ccccc34)cc2C1=O	inactive	inactive	inactive
CN1CCN(C(=O)C[C@@H]2C=C[C@@H](NS(=O)(=O)c3cccc(F)c3)[C@H](CO)O2)CC1	inactive	inactive	inactive
C[C@@H](NC(=O)[C@@H]1CCCC[C@H]1C(=O)O)c1ccccc1.C[C@@H](NC(=O)[C@H]1CCCC[C@H]1C(=O)O)c1ccccc1	inactive	inactive	inactive
COCC#Cc1ccc2c(c1)O[C@@H](CN(C)C(=O)C1CCOCC1)[C@@H](C)CN([C@@H](C)CO)S2(=O)=O	inactive	inactive	inactive
C[C@@H]1CN([C@@H](C)CO)C(=O)c2cc(NC(=O)Cc3ccccc3)ccc2O[C@@H](C)CCCCO[C@H]1CN(C)Cc1ccc(C(F)(F)F)cc1	inactive	inactive	inactive
O=C(O)[C@@H]1CCCCN1	inactive	inactive	inactive
C[C@@H]1CN([C@@H](C)CO)C(=O)Cc2cc(NC(=O)Cc3cn(C)c4ccccc34)ccc2O[C@@H]1CN(C)C(=O)Nc1ccc(C(F)(F)F)cc1	inactive	inactive	inactive
O=C(O)C[C@H]1CC[C@H]2[C@@H](COC[C@H](O)CN2S(=O)(=O)c2ccc(F)cc2)O1	inactive	inactive	inactive
CCCC(=O)Nc1ccc2c(c1)C(=O)N(C)C[C@@H](OC)[C@H](C)CN(Cc1ccc(-c3ccccn3)cc1)[C@H](C)CO2	inactive	inactive	inactive
COc1ccc(CN(C)C[C@@H]2OCCCC[C@@H](C)Oc3ccc(NC(=O)c4ccncc4)cc3C(=O)N([C@@H](C)CO)C[C@H]2C)cc1	inactive	inactive	inactive
C[C@@H]1CN([C@H](C)CO)C(=O)c2cc(C#CCN(C)C)cnc2O[C@@H]1CN(C)S(=O)(=O)c1cn(C)cn1	inactive	inactive	inactive
C[C@@H]1CN([C@H](C)CO)C(=O)c2cccc(NC(=O)C3CCOCC3)c2O[C@H]1CN(C)S(=O)(=O)c1cn(C)cn1	inactive	inactive	inactive
C[C@H]1CN([C@@H](C)CO)C(=O)c2cccc(NC(=O)Nc3ccc(C(F)(F)F)cc3)c2O[C@@H]1CN(C)Cc1ccc(Oc2ccccc2)cc1	inactive	inactive	inactive
